Reference: the BET-seq Pho4 binding data (Le et al. 2018)
The other results are listed elsewhere or left out. The energies were worked out here from pooled read counts, against the library average; single values are noisy.

Each sequence was assayed against T1, Pho4 (S. cerevisiae) (UniProt P07270) (assay: relative binding free energy (BET-seq); higher = weaker binding). Settings: reference: library average.
T1 sequence: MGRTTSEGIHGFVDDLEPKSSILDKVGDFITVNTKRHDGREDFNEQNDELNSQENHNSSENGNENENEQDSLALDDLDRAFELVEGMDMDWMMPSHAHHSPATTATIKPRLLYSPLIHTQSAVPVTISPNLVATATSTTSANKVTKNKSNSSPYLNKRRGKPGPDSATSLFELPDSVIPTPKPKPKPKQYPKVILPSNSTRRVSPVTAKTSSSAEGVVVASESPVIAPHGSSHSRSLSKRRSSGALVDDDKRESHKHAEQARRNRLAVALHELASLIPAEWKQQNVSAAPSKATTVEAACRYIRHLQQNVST

Sequence	relative binding free energy
TTATGCACGTGCCGTG	-0.01 kcal/mol
TAGGTCACGTGGATGT	0.12 kcal/mol
TGTCTCACGTGGGGTA	-0.01 kcal/mol
GAGGTCACGTGGGCAT	0.04 kcal/mol
ATGGGCACGTGAGTTG	0.11 kcal/mol
TTGTTCACGTGGATAA	0.27 kcal/mol
TTTTGCACGTGCTCTT	-0.04 kcal/mol
TGTGACACGTGAGTTA	0.18 kcal/mol
TGATTCACGTGTGAAA	0.4 kcal/mol
ATTTACACGTGTGCGG	0.02 kcal/mol
AAGGGCACGTGCAGAG	-0.16 kcal/mol
TTGCGCACGTGATGCT	0.06 kcal/mol
AGCTTCACGTGTCGGG	0.23 kcal/mol
AATAACACGTGGTATG	-0.17 kcal/mol
TTGATCACGTGTGTTG	0.29 kcal/mol
TTGTACACGTGCTCGT	0.04 kcal/mol
TAGTACACGTGTCTGG	0.05 kcal/mol
CTTTACACGTGTTGTT	0.07 kcal/mol
GGAATCACGTGTGTGA	0.27 kcal/mol
TGGTTCACGTGAAAAA	0.56 kcal/mol
GGTGACACGTGTTAGC	0.09 kcal/mol
TAGCTCACGTGCGGGG	0.08 kcal/mol
CATTTCACGTGCATTT	0.31 kcal/mol

Sequence	relative binding free energy
TTTGTCACGTGTTTAG	0.09 kcal/mol
AACATCACGTGTGTTT	0.25 kcal/mol
ATGGACACGTGTGGTG	0.11 kcal/mol
TGGATCACGTGTTATA	0.21 kcal/mol
ATATACACGTGGAGGT	-0.03 kcal/mol
TGATTCACGTGTGGTT	0.29 kcal/mol
GGGATCACGTGGATGA	0.06 kcal/mol
AATAGCACGTGGTGTA	-0.18 kcal/mol
AATAGCACGTGTTCGG	-0.19 kcal/mol
GGGCGCACGTGGCTGA	-0.09 kcal/mol
GGCGGCACGTGAGTAT	0.09 kcal/mol
AGGCGCACGTGGGGCG	-0.25 kcal/mol
TACGGCACGTGGCTTG	-0.13 kcal/mol
GTGATCACGTGGCCGG	0 kcal/mol
GAAGGCACGTGTTGAA	0.12 kcal/mol
AGGGACACGTGTATAT	0.01 kcal/mol
ATATGCACGTGGTAAT	-0.16 kcal/mol
TGATTCACGTGGCGCG	0.17 kcal/mol
TCTTTCACGTGTTGTT	0.31 kcal/mol
AGATCCACGTGTTGGT	0.09 kcal/mol
TATACCACGTGAGTTG	0.27 kcal/mol
GAGTTCACGTGGTGAG	0.32 kcal/mol
ATGTCCACGTGAGATT	0.37 kcal/mol

Sequence	relative binding free energy
TGGTCCACGTGTTGTT	0.06 kcal/mol
ATACTCACGTGGGATT	0.12 kcal/mol
AGCTTCACGTGGTAGG	0.19 kcal/mol
TGATACACGTGTTTTA	-0.01 kcal/mol
TACGGCACGTGAGTTG	0.23 kcal/mol
TTCTGCACGTGCTTTG	0 kcal/mol
GTTGCCACGTGTTGGT	0.04 kcal/mol
AAGGGCACGTGGGCTG	-0.34 kcal/mol
AAGAACACGTGGTTTT	0.01 kcal/mol
GGATTCACGTGGCTTT	0.24 kcal/mol
TGTTACACGTGAGGGC	0.3 kcal/mol
GGGGCCACGTGACGGG	-0.12 kcal/mol
TAGTACACGTGACGGT	0.17 kcal/mol
TGAGTCACGTGTGTCC	0.22 kcal/mol
GGTGTCACGTGTAAAG	0.23 kcal/mol
TTTGCCACGTGAGTGA	0.12 kcal/mol
GCAGTCACGTGGTGGT	-0.01 kcal/mol
GGATGCACGTGGAAAT	0.12 kcal/mol
TGTAGCACGTGATGTA	0.05 kcal/mol
AGGATCACGTGGTAGA	0.18 kcal/mol
ACTTGCACGTGTAGTG	0 kcal/mol
GTTAGCACGTGTCCTG	0.03 kcal/mol
GTTGACACGTGGTGGT	0.05 kcal/mol

Sequence	relative binding free energy
TTGGTCACGTGTATTT	0.11 kcal/mol
TCGGACACGTGTTTGG	-0.04 kcal/mol
TTTTGCACGTGCTGAT	-0.12 kcal/mol
TATGACACGTGTCATG	0.02 kcal/mol
TTTTACACGTGAGGTA	0.26 kcal/mol
GAGGCCACGTGTAGGT	0.06 kcal/mol
AACAGCACGTGGTTAG	-0.1 kcal/mol
GGAGGCACGTGATTAG	0.05 kcal/mol
TGGTTCACGTGGAATT	0.56 kcal/mol
GGGAACACGTGGCGGC	0.03 kcal/mol
AAAGTCACGTGACGGT	0.2 kcal/mol
GTTATCACGTGTAGAA	0.29 kcal/mol
TTAGTCACGTGCTGAA	0.11 kcal/mol
TTTGACACGTGCTAGT	-0.09 kcal/mol
ATACTCACGTGAGGTG	0.28 kcal/mol
AGTGTCACGTGCGTAT	0.02 kcal/mol
TTTTACACGTGTCGAT	0.1 kcal/mol
TTGGCCACGTGTCTGT	-0.11 kcal/mol
GGTAACACGTGGTGGG	0.06 kcal/mol
ATGATCACGTGCTAGG	0.1 kcal/mol
TGTGTCACGTGCGGGC	0.05 kcal/mol
TCCATCACGTGTGGTG	0.28 kcal/mol
TGTATCACGTGGGTGT	-0.01 kcal/mol

Sequence	relative binding free energy
TGGTGCACGTGTAGAC	0.07 kcal/mol
TTTGTCACGTGCTGGT	0 kcal/mol
TGGTGCACGTGCCTGG	-0.06 kcal/mol
TTTTGCACGTGGGTCG	-0.08 kcal/mol
GTCAGCACGTGGTGTA	-0.04 kcal/mol
ACTTGCACGTGTATGT	0.08 kcal/mol
TGTCGCACGTGGTTCT	-0.09 kcal/mol
TGCGGCACGTGGTGGG	-0.17 kcal/mol
AGGTTCACGTGCGTGG	0.23 kcal/mol
TGTCGCACGTGGATGA	-0.04 kcal/mol
ATGAACACGTGTAGTA	0.11 kcal/mol
TGTGACACGTGGTGAC	0.09 kcal/mol
TATTGCACGTGTTGCT	-0.02 kcal/mol
AGGGGCACGTGCGTCT	-0.25 kcal/mol
TGGCCCACGTGTGGTT	0.01 kcal/mol
AGAAGCACGTGGGGCC	-0.08 kcal/mol
GGTCGCACGTGTGATA	0.13 kcal/mol
GGATGCACGTGTAGTC	0.09 kcal/mol
TCATGCACGTGTTTTG	0.03 kcal/mol
GGTTTCACGTGGATCT	0.21 kcal/mol
GTGTACACGTGTAGGA	0.16 kcal/mol
GGTTACACGTGTTAGC	0.24 kcal/mol
GTAAGCACGTGGAGCG	-0.08 kcal/mol
